Kd, koff and kon data for 1 molecule are collected here from patent CN110300763A.

The experiment concerns the target 人CXCR3 (重组人CXCR3) (人) (UniProt P49682). The experiment in a line: 结合动力学 (表5; method and antigen form not stated in Example 1).
Chain of UniProt P49682 (P49682 whole entry): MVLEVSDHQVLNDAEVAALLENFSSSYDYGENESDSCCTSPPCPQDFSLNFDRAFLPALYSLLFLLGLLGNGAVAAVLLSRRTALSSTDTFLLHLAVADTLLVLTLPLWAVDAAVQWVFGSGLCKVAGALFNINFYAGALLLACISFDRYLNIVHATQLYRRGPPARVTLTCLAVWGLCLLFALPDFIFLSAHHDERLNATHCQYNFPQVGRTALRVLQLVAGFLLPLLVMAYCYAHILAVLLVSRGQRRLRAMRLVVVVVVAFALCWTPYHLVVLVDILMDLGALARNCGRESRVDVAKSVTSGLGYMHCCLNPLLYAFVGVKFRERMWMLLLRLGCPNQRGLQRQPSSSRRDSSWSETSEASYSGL

B1: 人源化抗CXCR3 mAb 53Hu37 (antibody, part only; not given: CH1 part and light constant region, part only)
heavy, part: EVQLLESGGGLVQPGGSLRLSCAASGFTFTSYAMSWVRQAPGKGLEWVATISHGGTYTYYPDSVKGRFTISRDNAKNTLYLQMNSLRAEDTAVYYCARHPIYSGNYQGYFDYWGQGTLVTVSSSLGTQTYICNVNHKPSNTKVDKKV[letters of human IgG1 Fc left out]
light, part: DIQLTQSPSFLSASVGDRVTITCRASSGVNYLYWYQQKPGKAPKLWIYFTSTLASGVPSRFSGSGSGNEYTLTISSLQPEDFATYYCQQFTSSPYTFGQGTKLEIK
As a reminder, the Kd is a measure of binding affinity in units of concentration. As a reminder, the koff is the first-order rate constant of dissociation. The low end stands for a long-lived complex, the high end for a short-lived complex. By kon is commonly meant the rate constant with which the complex forms. A higher kon goes with faster complex formation. Take B1: the Kd was 957 pM, the koff was determined as 6.48e-05 s⁻¹ and the kon was found to be 67400 M⁻¹ s⁻¹.
